Measurements as given in the supplement of paper PMC4967469.

What was measured:
Assay in all cases: Viability of human cancer cell lines after 72 h of drug (GDSC screen)
GSK269962A = compound: CCn1c(-c2nonc2N)nc2cnc(Oc3cccc(NC(=O)c4ccc(OCCN5CCOCC5)cc4)c3)cc21 [GSK269962A]; settings: top dose 5 µM; screen: GDSC drug entry 1192; top dose inferred
Method: (§1)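 Human cancer cell lines in 384-well plates, medium with 10% serum, drug for 72 h over a 256-fold dose range (nine 2-fold or five 4-fold steps up to the top dose). Adherent lines were fixed and stained with the nucleic acid dye Syto60, suspension lines read with resazurin; signal relative to control wells, capped at 0 and 100%. One two-parameter sigmoid per drug and line, fitted in a mixed model over all curves with the slope shared within a line.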

MPS-1-IN-1 = compound: COc1cc(N2CCC(O)CC2)ccc1Nc1cc(Nc2ccccc2S(=O)(=O)C(C)C)c2cc[nH]c2n1 [MPS-1-IN-1]; settings: top dose 20 µM; top dose inferred
Method: as §1

Thapsigargin = compound: C/C=C(/C)C(=O)O[C@H]1C(C)=C2[C@H]([C@@H]1OC(=O)CCCCCCC)[C@@](C)(OC(C)=O)C[C@H](OC(=O)CCC)[C@@]1(O)[C@H]2OC(=O)[C@@]1(C)O [Thapsigargin]; settings: top dose 0.512 µM; top dose inferred
Method: as §1

ABT-869 = compound: Cc1ccc(F)c(NC(=O)Nc2ccc(-c3cccc4[nH]nc(N)c34)cc2)c1 [ABT-869]; settings: top dose 1.024 µM; top dose inferred
Method: as §1

Zibotentan = compound: COc1nc(C)cnc1NS(=O)(=O)c1cccnc1-c1ccc(-c2nnco2)cc1 [Zibotentan]; settings: top dose 20 µM; top dose inferred
Method: as §1

KU-55933 = compound: O=c1cc(-c2cccc3c2Sc2ccccc2S3)oc(N2CCOCC2)c1 [KU-55933]; settings: top dose 10 µM
Method: as §1

(5Z)-7-Oxozeaenol = compound: COc1cc(O)c2c(c1)/C=C/C[C@H](O)[C@H](O)C(=O)/C=C\C[C@H](C)OC2=O [(5Z)-7-Oxozeaenol]; settings: top dose 10 µM; top dose inferred
Method: as §1

CHIR-99021 = compound: Cc1cnc(-c2cnc(NCCNc3ccc(C#N)cn3)nc2-c2ccc(Cl)cc2Cl)[nH]1 [CHIR-99021]
Method: as §1

QL-X-138 = compound: C=CC(=O)Nc1cc(-n2c(=O)ccc3cnc4ccc(-c5cn[nH]c5)cc4c32)ccc1C [QL-X-138]; settings: top dose 10.24 µM; top dose inferred
Method: as §1

CP466722 = compound: COc1cc2ncnc(-n3nc(-c4ccccn4)nc3N)c2cc1OC [CP466722]; settings: top dose 16 µM; top dose inferred
Method: as §1

[1] = top dose 2.56 µM, screen: GDSC drug entry 154
[2] = top dose 10 µM, screen: GDSC drug entry 1241, top dose inferred

Cell Line | AUC (GSK269962A) | IC50 (GSK269962A) [µM] | AUC (MPS-1-IN-1) | IC50 (MPS-1-IN-1) [µM] | AUC (Thapsigargin) | IC50 (Thapsigargin) [µM] | AUC (ABT-869) | IC50 (ABT-869) [µM] | AUC (Zibotentan) | IC50 (Zibotentan) [µM] | AUC (KU-55933) | IC50 (KU-55933) [µM] | AUC ((5Z)-7-Oxozeaenol) | IC50 ((5Z)-7-Oxozeaenol) [µM] | AUC (CHIR-99021; [1]) | IC50 (CHIR-99021; [1]) [µM] | AUC (CHIR-99021; [2]) | IC50 (CHIR-99021; [2]) [µM] | AUC (QL-X-138) | IC50 (QL-X-138) [µM] | AUC (CP466722) | IC50 (CP466722) [µM]
LoVo (large intestine, adherent) | 0.86 | 4.29 | 0.97 | > 20 | 0.237 | 0.0055 | 0.985 | > 1.02 | 0.987 | > 20 | 0.818 | 5.72 | 0.497 | 0.614 | 0.922 | > 2.56 | 0.933 | > 10 | 0.933 | > 10.2 | 0.914 | > 16
MDA-MB-157 (breast, adherent) | 0.937 | > 5 | 0.978 | > 20 | 0.901 | > 0.512 | 0.986 | > 1.02 | 0.988 | > 20 | 0.961 | > 10 | 0.798 | 4.89 | 0.971 | > 2.56 | 0.95 | > 10 | 0.858 | 8.8 | 0.952 | > 16
MDA-MB-436 (breast, adherent) | 0.941 | > 5 | 0.893 | > 20 | 0.288 | 0.00678 | 0.982 | > 1.02 | 0.981 | > 20 | 0.965 | > 10 | 0.642 | 1.71 | 0.979 | > 2.56 | 0.973 | > 10 | 0.934 | > 10.2 | 0.942 | > 16
MDA-MB-468 (breast, adherent) | 0.928 | > 5 | 0.903 | > 20 | 0.162 | 0.00312 | 0.988 | > 1.02 | 0.985 | > 20 | 0.922 | > 10 | 0.612 | 1.26 | 0.988 | > 2.56 | 0.987 | > 10 | 0.569 | 0.98 | 0.745 | 4.88
MFE-319 (endometrium, adherent) | 0.947 | > 5 | 0.97 | > 20 | 0.123 | 0.00211 | 0.988 | > 1.02 | 0.982 | > 20 | 0.923 | > 10 | 0.764 | 3.52 | 0.979 | > 2.56 | 0.966 | > 10 | 0.754 | 3.35 | 0.863 | 13.1
MKN1 (stomach, adherent) | 0.889 | > 5 | 0.937 | > 20 | 0.523 | 0.0371 | 0.986 | > 1.02 | 0.987 | > 20 | 0.873 | > 10 | 0.718 | 2.7 | 0.949 | > 2.56 | 0.959 | > 10 | 0.817 | 6.12 | 0.839 | 11.8
NCI-H2030 (lung adenocarcinoma, adherent) | 0.849 | 4.6 | 0.945 | > 20 | 0.266 | 0.00619 | 0.976 | > 1.02 | 0.976 | > 20 | 0.876 | > 10 | 0.693 | 2.37 | 0.982 | > 2.56 | 0.967 | > 10 | 0.703 | 2.61 | 0.749 | 5.82
NCI-H2085 (lung adenocarcinoma, adherent) | 0.951 | > 5 | 0.96 | > 20 | 0.312 | 0.00907 | 0.976 | > 1.02 | 0.986 | > 20 | 0.912 | > 10 | 0.758 | 3.73 | 0.985 | > 2.56 | 0.954 | > 10 | 0.709 | 2.64 | 0.796 | 8.18
NUGC-3 (stomach, adherent) | 0.946 | > 5 | 0.947 | > 20 | 0.208 | 0.00389 | 0.975 | > 1.02 | 0.983 | > 20 | 0.901 | > 10 | 0.66 | 1.85 | 0.974 | > 2.56 | 0.98 | > 10 | 0.871 | > 10.2 | 0.938 | > 16
OAW-28 (ovary, adherent) | 0.977 | > 5 | 0.918 | > 20 | 0.579 | 0.0557 | 0.983 | > 1.02 | 0.98 | > 20 | 0.967 | > 10 | 0.802 | 6.49 | 0.917 | > 2.56 | 0.977 | > 10 | 0.831 | 9.01 | 0.896 | > 16
OSC-19 (head and neck, adherent) | 0.901 | > 5 | 0.91 | > 20 | 0.149 | 0.00246 | 0.983 | > 1.02 | 0.986 | > 20 | 0.932 | > 10 | 0.652 | 1.68 | 0.987 | > 2.56 | 0.985 | > 10 | 0.878 | > 10.2 | 0.9 | > 16
OVCAR-3 (ovary, adherent) | 0.94 | > 5 | 0.987 | > 20 | 0.233 | 0.00488 | 0.986 | > 1.02 | 0.984 | > 20 | 0.98 | > 10 | 0.78 | 4.57 | 0.983 | > 2.56 | 0.86 | 9.78 | 0.987 | > 10.2 | 0.942 | > 16
PANC-10-05 (pancreas, adherent) | 0.886 | > 5 | 0.903 | > 20 | 0.269 | 0.00574 | 0.979 | > 1.02 | 0.979 | > 20 | 0.972 | > 10 | 0.701 | 2.74 | 0.932 | > 2.56 | 0.933 | > 10 | 0.619 | 1.5 | 0.791 | 9.54
PC-3 (prostate, adherent) | 0.87 | > 5 | 0.935 | > 20 | 0.303 | 0.00782 | 0.979 | > 1.02 | 0.98 | > 20 | 0.917 | > 10 | 0.811 | 6.83 | 0.978 | > 2.56 | 0.946 | > 10 | 0.553 | 0.92 | 0.832 | 13.4
RERF-GC-1B (stomach, adherent) | 0.819 | 3.29 | 0.763 | 7.99 | 0.46 | 0.0246 | 0.974 | > 1.02 | 0.977 | > 20 | 0.984 | > 10 | 0.725 | 2.96 | 0.98 | > 2.56 | 0.983 | > 10 | 0.766 | 4.21 | 0.913 | > 16
SK-LU-1 (lung adenocarcinoma, adherent) | 0.809 | 3.52 | 0.954 | > 20 | 0.165 | 0.00216 | 0.969 | > 1.02 | 0.98 | > 20 | 0.92 | > 10 | 0.717 | 3.08 | 0.98 | > 2.56 | 0.973 | > 10 | 0.729 | 3.5 | 0.781 | 8.61
SK-MEL-28 (melanoma, adherent) | 0.987 | > 5 | 0.905 | > 20 | 0.929 | > 0.512 | 0.988 | > 1.02 | 0.986 | > 20 | 0.876 | 9.65 | 0.175 | 0.0666 | 0.947 | > 2.56 | 0.97 | > 10 | 0.765 | 3.67 | 0.902 | > 16
SW900 (lung squamous cell carcinoma, adherent) | 0.914 | > 5 | 0.944 | > 20 | 0.483 | 0.0285 | 0.969 | > 1.02 | 0.981 | > 20 | 0.975 | > 10 | 0.714 | 2.8 | 0.877 | > 2.56 | 0.83 | 7.75 | 0.898 | > 10.2 | 0.887 | > 16
TCCSUP (bladder, adherent) | 0.904 | > 5 | 0.981 | > 20 | 0.532 | 0.0396 | 0.984 | > 1.02 | 0.982 | > 20 | 0.965 | > 10 | 0.649 | 1.73 | 0.982 | > 2.56 | 0.935 | > 10 | 0.804 | 5.98 | 0.923 | > 16
U031 (kidney, adherent) | 0.619 | 0.671 | 0.845 | 15.3 | 0.553 | 0.0448 | 0.98 | > 1.02 | 0.983 | > 20 | 0.913 | > 10 | 0.496 | 0.608 | 0.975 | > 2.56 | 0.707 | 2.46 | 0.759 | 3.69 | 0.788 | 7.28
VM-CUB-1 (bladder, adherent) | 0.747 | 1.55 | 0.969 | > 20 | 0.394 | 0.0166 | 0.988 | > 1.02 | 0.989 | > 20 | 0.894 | > 10 | 0.606 | 1.21 | 0.988 | > 2.56 | 0.967 | > 10 | 0.95 | > 10.2 | 0.957 | > 16

By IC50 is meant the dose at which the fit gives 50% viability; a fit beyond the top or the lowest dose is shown as a bound at that dose. AUC sums up the same curve from the lowest dose to the 256-fold higher top dose; it is 1 without any effect and falls as sensitivity rises. For part of these data: A top dose marked as inferred is not printed in the source and was worked back from the curve model. For part of these data: Where an entry number is given, a second screen of the drug exists; the two often differ.
